# In PubChem BioAssay AID652106 (National Center for Advancing Translational Sciences (NCATS), 2013):
# Among all 370,000 compounds or so, about 500 (0.14%) were called active. Inconclusive means that the source gave no clear call. Such entries were picked first, then a sample of the others. The call rests on the fitted dose curve; in most records, active means well fitted activation curve with a large enough effect; inconclusive means small, poorly fitted or top-dose-only effect; inactive means no such curve, though single readings can be large or run the other way. No potency is given beside an inconclusive call; the fits are too rough.
# Assay: qHTS of alpha-syn Inhibitors; further: nearly all actives have a fitted effect of over 65% in size; on growth rescue (activation): % of control where 0% means no effect
# Settings: Yeast expressing alpha-synuclein, BacTiter-Glo, 24 h; Potency: growth rescue unless noted; growth rescue (activation): at 46.1 µM (top of the series) unless noted
# Outline: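 Readout is rescue of growth in alpha-synuclein-expressing yeast, so inhibitors of toxicity appear as activators. Growth after 24 hr at 30 deg C in galactose medium is quantified by luminescence.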
# Potency means the concentration at half of the fitted maximal effect; tags describe the fitted curve by direction and shape.
Structure (SMILES),growth rescue (activation),Potency
CC(=NCc1cccc(Cl)c1)c1nc(-c2ccco2)oc1O,inactive: -1.65%,
CCOC(=O)[C@]12CCCC=C1N(Cc1ccc3c(c1)OCO3)C(=O)[C@H](CC(=O)N1CCN(C(=O)c3ccco3)CC1)C2,,"inconclusive [activator, single point]"
CN1CCN(C(=O)c2ccc3c(c2)N(Cc2ccc(Cl)cc2)C(=O)c2ccccc2S3=O)CC1 (stereo unspecified),,"inconclusive [activator, single point]"
CCOc1ccc(NC2=C(OC)C(=O)c3ccccc3C2=O)cc1,inactive: -12%,
Cc1cccc(C2NC(=O)c3ccccc3O2)c1 (stereo unspecified),inactive: 7.43%,
Cc1ccc(CNC(=O)c2ccc(N3CCC4(CC3)CC(c3cccc(Br)c3)=NO4)c(NC(=O)c3ccc(Br)cc3)c2)cc1,,"inconclusive [activator, single point]"
O=C(c1ccncc1)N1N=C(c2ccc(Br)cc2)CC1c1ccccc1O (stereo unspecified),,"inconclusive [activator, single point]"
COc1cc(-c2nnc(SCC(=O)O)n2-c2ccccc2)cc(OC)c1OC,inactive: 0.512%,
CCc1ccc(NC(=O)C(C)Nc2ccc(S(=O)(=O)NC(C)=O)cc2)cc1 (stereo unspecified),,"inconclusive [activator, single point]"
CC(=O)Nc1c(Cl)cc2c(c1Cl)Cc1cc(N)ccc1-2,inactive: -1.62%,
COC(=O)c1ccc2nc(-c3ccc(C)cc3)c(CC3CCCCC3)n2c1,,"inconclusive [activator, single point]"
Cc1ccc(S(=O)(=O)N2CCN(C(=O)N(C)C)CC2)cc1C,inactive: -6.13%,
CCc1c(SCCC(=O)O)nc2ccccc2c1C,,"inconclusive [activator, single point]"
CCOC(=O)c1c(NC(=O)c2ccc(S(=O)(=O)N3CCC(C)CC3)cc2)sc2c1CCN(C(C)C)C2,,"inconclusive [activator, partial curve, poor fit]"
COc1ccccc1C(=O)Nc1ccc(OCC(=O)N2CCCCC2C)cc1 (stereo unspecified),,"inconclusive [activator, single point]"
O=c1[nH]c2cc3c(cc2cc1C(c1nnnn1Cc1ccccc1)N1CCN2CCCC2C1)OCCO3 (stereo unspecified),inactive: 2.96%,
CCOC(=O)c1sc2nc(CC(=O)OC)nc(NCc3ccco3)c2c1C,inactive: 3.68%,
COc1ccc(Nc2c3c(nc4ccccc24)CCCC3)cc1OC,inactive: -1.94%,
COc1ccccc1C(=O)n1nc(-c2ccc(Cl)cc2)nc1N,,"inconclusive [activator, single point]"
O=S(Cc1ccc(Br)cc1)Cc1nnc(SCc2ccc(Cl)cc2)n1-c1ccccc1 (stereo unspecified),,"inconclusive [activator, single point]"
COc1cccc2c(=O)n(CC(=O)N3CCCCCC3)ccc12,,"inconclusive [activator, single point]"
NC(=S)N/N=C\c1ccc(-c2cccc(Cl)c2Cl)o1,inactive: 2.52%,
CCNC(=S)NNC(=O)c1cccn(Cc2ccc(Cl)cc2Cl)c1=O,,"inconclusive [activator, single point]"
O=[N+]([O-])c1ccc(Sc2cccc[n+]2[O-])c2nonc12,,active: 0.562 µM

Structure (SMILES),growth rescue (activation),Potency
CC(C)n1cc(-c2ccc(Cl)cc2)cc(C#N)c1=O,inactive: -24.9%,
COc1ccc(NS(=O)(=O)c2ccc(NC(=O)c3ccc(N(C)S(C)(=O)=O)cc3)cc2)c(OC)c1,inactive: -0.538%,
COc1ccc(C(O)c2nc(-c3ccccc3OC)cs2)cc1 (stereo unspecified),,"inconclusive [activator, partial curve, poor fit]"
CCC(=NCCc1c(C)[nH]c2ccc(C)cc12)C1=C(O)CC(c2ccccc2)CC1=O (stereo unspecified),,"inconclusive [activator, single point]"
CCC1S/C(=C(\C#N)C(=O)NCc2ccco2)N(c2ccc(F)cc2)C1=O (stereo unspecified),inactive: -1.65%,
Cc1nc2cc(S(=O)(=O)N(C)C)ccc2n1-c1ccccc1,inactive: 1.62%,
Cc1cc(C(=O)COC(=O)c2ccccc2O)c(C)n1CC1CCCO1 (stereo unspecified),inactive: -4.11%,
O=C(c1cccc(Cl)c1)N1CCC(=O)N([C@H](COCc2cccc(Cl)c2)Cc2ccccc2)CC1,,"inconclusive [activator, single point]"
CN(Cc1ccccc1F)C(=O)c1ccc(Oc2ccccc2)cc1,inactive: 5.22%,
Cc1cccc(C)c1NC(=O)C(c1ccc(C(F)(F)F)cc1)n1c(=O)c(-c2cc3ccccc3[nH]2)nc2ccccc21 (stereo unspecified),,"inconclusive [activator, partial curve]"
CN(C)N1C(=O)CC(N2CCCC2)C1=O (stereo unspecified),,"inconclusive [activator, single point]"
Fc1cccc(Cl)c1CSc1nnc(CNc2ccccc2)o1,,"inconclusive [activator, partial curve, poor fit]"
COc1ccc(NS(=O)(=O)c2ccc(-c3cnc(C4CC4)o3)cc2)cc1OC,inactive: -7.07%,
Cc1ccc(C(C)C)c(OCC(=O)NNC(=O)C(C(C)C)N2C(=O)c3ccccc3C2=O)c1 (stereo unspecified),,"inconclusive [activator, single point]"
COc1ccc(S(=O)(=O)c2c(N)n(Cc3ccco3)c3nc4ccccc4nc23)cc1,inactive: 5.71%,
COCCN(CC(=O)NC1CCCCC1)C(=O)/C=C/C(=O)c1ccc(OC)cc1O,inactive: 11%,
CC(C)CNC(=O)N1CCN(S(=O)(=O)c2ccc3c(ccn3C)c2)CC1,inactive: 0.628%,
CCOC(=O)c1ccc(NS(=O)(=O)c2c(C)nc3sccn3c2=O)cc1,,"inconclusive [activator, single point]"
COc1ccc([N+](=O)[O-])c(C=CC(=O)c2ccccn2)c1,,active: 20 µM
Cc1cc(N/N=C/c2ccc(O)cc2)c2cccc(C)c2n1,,"inconclusive [activator, single point]"
Cc1cc(C)n2c(NCc3ccccc3)c(CCc3ccccc3)nc2n1,,"inconclusive [activator, single point]"
O=C(NCc1cccnc1)C1CCN(S(=O)(=O)c2cccnc2)CC1,,"inconclusive [activator, single point]"
CCCn1c2ccccc2c2cnn(CC(=O)NCCOC)c(=O)c21,,active: 3.55 µM
c1ccc(-c2cnc(CSc3nnc4ccccn34)o2)cc1,,"inconclusive [activator, single point]"

Structure (SMILES),growth rescue (activation),Potency
O=C(O)CN=CC1=C(O)CC(c2ccccc2)CC1=O (stereo unspecified),,"inconclusive [activator, single point]"
O=C(/C=C/c1c(Cl)cccc1Cl)N1CCN(c2ncccn2)CC1,,"inconclusive [activator, single point]"
COc1ccccc1NC(=O)/C(C#N)=C/c1cc([N+](=O)[O-])ccc1N1CCCC1,,"inconclusive [activator, single point]"
COc1ccc(OC)c(NC(=O)COC(=O)CN2C(=O)NC3(CCCC3)C2=O)c1,,"inconclusive [activator, single point]"
CC(=O)Nc1cccc(Cl)c1C(=O)O,,"inconclusive [activator, single point]"
Cc1cc(C)c2cc(C#N)c(NCCNC(=O)c3ccccn3)nc2c1,,"inconclusive [activator, single point]"
Cc1ccc(CN2CCN(Cc3cn(C)nc3-c3ccccc3)CC2CCO)o1 (stereo unspecified),,"inconclusive [activator, single point]"
Cc1cccc(NC(=O)c2cc(N3C(=O)CCC3=O)ccc2Cl)n1,,"inconclusive [activator, single point]"
CC12CCC(C(=Nc3ccc(N=C4C(=O)C5(C)CCC4C5(C)C)cc3)C1=O)C2(C)C,,"inconclusive [activator, single point]"
COC(=O)c1ccc(C(=O)OC)c(NC(=S)N2CCCC(C)C2)c1 (stereo unspecified),,"inconclusive [activator, single point]"
Cc1cc(O)cc(C)c1Cl,inactive: 1.48%,
CC(=O)C1=CCC(c2ccc(Br)cc2)N(S(=O)(=O)c2ccc(C)cc2)C1 (stereo unspecified),,"inconclusive [activator, single point]"
Cc1cccc(C)c1NC(=O)C(c1ccccc1F)n1c(=O)c(-c2cc3ccccc3[nH]2)nc2ccccc21 (stereo unspecified),,"inconclusive [activator, partial curve]"
COC(=O)Cn1cnc2c(cnn2-c2ccccc2)c1=O,,"inconclusive [activator, single point]"
CC(C)(C)c1nnc(N/N=C/c2ccccc2)n(N)c1=O,inactive: -1.22%,
Cc1ccc(Sc2ccc(NC(=O)CCl)cc2)c(C)c1,inactive: 16.3%,
Cc1cc(C)c(CSc2nnnn2-c2ccc(C(=O)O)cc2)c(C)c1,,"inconclusive [activator, partial curve]"
CCCCCC(=O)NNC(=S)NC(C)=O,,"inconclusive [activator, single point]"
Cc1cccc(NC(=O)CN(C)S(=O)(=O)c2ccc3c(c2)n(C)c(=O)c(=O)n3C)c1C,inactive: -4.45%,
O=C1CSC(c2ccccc2[N+](=O)[O-])N1CCc1ccccc1 (stereo unspecified),inactive: 1.34%,
Cc1cccc(-c2nc(CC(=O)Nc3cccc(S(=O)(=O)NC4=NCCC4)c3)cs2)c1,,"inconclusive [activator, single point]"
CC(C)COC(=O)N(C)C[C@H]1OCc2cnnn2CCCC(=O)N([C@@H](C)CO)C[C@H]1C,,"inconclusive [activator, single point]"
CCc1nc(N2CCN(C(=O)CCCl)CC2)c2c3c(sc2n1)CCCC3,inactive: 9.88%,
